Laboratory results reported in patent US9873709B2 (priority 2013, dated 2018).

biological target: isolated recombinant JAK1 kinase domain (Homo sapiens (Human), UniProt P23458); settings: read-out: JAK1 Ki
Sequence (P23458 875-1153): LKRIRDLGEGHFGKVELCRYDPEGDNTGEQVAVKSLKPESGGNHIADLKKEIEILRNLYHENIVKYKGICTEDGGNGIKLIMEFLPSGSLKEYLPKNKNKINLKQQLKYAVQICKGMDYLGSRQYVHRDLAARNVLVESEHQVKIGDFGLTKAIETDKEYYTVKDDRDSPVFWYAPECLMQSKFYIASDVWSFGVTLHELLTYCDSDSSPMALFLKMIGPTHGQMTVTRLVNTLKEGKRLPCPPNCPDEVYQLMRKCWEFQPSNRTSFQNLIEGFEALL

| SMILES | Ki [nM] |
| --- | --- |
| CN(Cc1ccc2ncccc2c1)C(=O)c1ccc(Nc2nc3c(N4CCC(O)(c5ccc(Cl)cc5)CC4)cccn3n2)cc1 [Example 1-169, 4-[[8-[4-(4-chlorophenyl)-4-hydroxy-1-piperidyl]-[1,2,4]triazolo[1,5-a]pyridin-2-yl]amino]-N-methyl-N-(6-quinolylmethyl) benzamide] | 6.7 |

same assay, conditions: read-out: JAK1 Ki; isolated recombinant JAK1 kinase domain, 25 μM ATP

| SMILES | Ki [nM] |
| --- | --- |
| CN(C)[C@H]1CCN(C(=O)c2ccc(Nc3nc4c(N5CCC(O)(c6ccc(Cl)cc6)CC5)cccn4n3)cc2)C1 [Example 1-166, [4-[[8-[4-(4-chlorophenyl)-4-hydroxy-1-piperidyl]-[1,2,4]triazolo[1,5-a]pyridin-2-yl]amino]phenyl]-[(3S)-3-(dimethylamino)pyrrolidin-1-yl]methanone] | 2.13 |
| N#CCCN1CCN(C(=O)c2ccc(Nc3nc4c(N5CCC(O)(c6ccc(Cl)cc6)CC5)cccn4n3)cc2)CC1 [Example 1-167, 3-[4-[4-[[8-[4-(4-chlorophenyl)-4-hydroxy-1-piperidyl]-[1,2,4]triazolo[1,5-a]pyridin-2-yl]amino]benzoyl]piperazin-1-yl]propanenitrile] | 1.79 |
| O=C(c1ccc(Nc2nc3c(N4CCC(O)(c5ccc(Cl)cc5)CC4)cccn3n2)cc1)N1CCN2CCCC2C1 (centres unmarked) [Example 1-168, 3,4,6,7,8,8a-hexahydro-1H-pyrrolo[1,2-a]pyrazin-2-yl-[4-[[8-[4-(4-chlorophenyl)-4-hydroxy-1-piperidyl]-[1,2,4]triazolo[1,5-a]pyridin-2-yl]amino]phenyl] methanone] | 2.75 |
| CN1CCCC(CN(C)C(=O)c2ccc(Nc3nc4c(N5CCC(O)(c6ccc(Cl)cc6)CC5)cccn4n3)cc2)C1 (centres unmarked) [Example 1-170, 4-[[8-[4-(4-chlorophenyl)-4-hydroxy-1-piperidyl]-[1,2,4]triazolo[1,5-a]pyridin-2-yl]amino]-N-methyl-N-[(1-methyl-3-piperidyl)methyl] benzamide] | 1.51 |
| CN(C(=O)c1ccc(Nc2nc3c(N4CCC(O)(c5ccc(Cl)cc5)CC4)cccn3n2)cc1)C1CCN(Cc2ccccc2)C1 (centres unmarked) [Example 1-171, N-(1-benzylpyrrolidin-3-yl)-4-[[8-[4-(4-chlorophenyl)-4-hydroxy-1-piperidyl]-[1,2,4]triazolo[1,5-a]pyridin-2-yl]amino]-N-methyl-benzamide] | 14.3 |
| O=C(c1ccc(Nc2nc3c(N4CCC(O)(c5ccc(Cl)cc5)CC4)cccn3n2)cc1)N1CCN(CC2CCCO2)CC1 (centres unmarked) [Example 1-172, [4-[[8-[4-(4-chlorophenyl)-4-hydroxy-1-piperidyl]-[1,2,4]triazolo[1,5-a]pyridin-2-yl]amino]phenyl]-[4-(tetrahydrofuran-2-ylmethyl)piperazin-1-yl]methanone] | 3.03 |
| O=C(NCCN1CCCCC1)c1ccc(Nc2nc3c(N4CCC(O)(c5ccc(Cl)cc5)CC4)cccn3n2)cc1 [Example 1-173, 4-[[8-[4-(4-chlorophenyl)-4-hydroxy-1-piperidyl]-[1,2,4]triazolo[1,5-a]pyridin-2-yl]amino]-N-[2-(1-piperidyl)ethyl]benzamide] | 1.95 |
| CNC(=O)C1CN(C(C)C)CCN1C(=O)c1ccc(Nc2nc3c(N4CCC(O)(c5ccc(Cl)cc5)CC4)cccn3n2)cc1 (centres unmarked) [Example 1-174, 1-[4-[[8-[4-(4-chlorophenyl)-4-hydroxy-1-piperidyl]-[1,2,4]triazolo[1,5-a]pyridin-2-yl]amino]benzoyl]-4-isopropyl-N-methyl-piperazine-2-carboxamide] | 2.41 |
| CN1CCC(OC(=O)c2ccc(Nc3nc4c(N5CCC(O)(c6ccc(Cl)cc6)CC5)cccn4n3)cc2)CC1 [Example 1-178, (1-methyl-4-piperidyl) 4-[[8-[4-(4-chlorophenyl)-4-hydroxy-1-piperidyl]-[1,2,4]triazolo[1,5-a]pyridin-2-yl]amino]benzoate] | 1.15 |
| O=C(NC1CCCNC1)c1ccc(Nc2nc3c(N4CCC(O)(c5ccc(Cl)cc5)CC4)cccn3n2)cc1 (centres unmarked) [Example 1-179, 4-[[8-[4-(4-chlorophenyl)-4-hydroxy-1-piperidyl]-[1,2,4]triazolo[1,5-a]pyridin-2-yl]amino]-N-(3-piperidyl)benzamide] | 1.69 |
| O=C(NCC1CCNC1)c1ccc(Nc2nc3c(N4CCC(O)(c5ccc(Cl)cc5)CC4)cccn3n2)cc1 (centres unmarked) [Example 1-180, 4-[[8-[4-(4-chlorophenyl)-4-hydroxy-1-piperidyl]-[1,2,4]triazolo[1,5-a]pyridin-2-yl]amino]-N-(pyrrolidin-3-ylmethyl)benzamide] | 1.64 |
| O=C(NCC1CCCN1)c1ccc(Nc2nc3c(N4CCC(O)(c5ccc(Cl)cc5)CC4)cccn3n2)cc1 (centres unmarked) [Example 1-182, 4-[[8-[4-(4-chlorophenyl)-4-hydroxy-1-piperidyl]-[1,2,4]triazolo[1,5-a]pyridin-2-yl]amino]-N-(pyrrolidin-2-ylmethyl)benzamide] | 2.59 |
| O=C(NCC1CCCNC1)c1ccc(Nc2nc3c(N4CCC(O)(c5ccc(Cl)cc5)CC4)cccn3n2)cc1 (centres unmarked) [Example 1-183, 4-[[8-[4-(4-chlorophenyl)-4-hydroxy-1-piperidyl]-[1,2,4]triazolo[1,5-a]pyridin-2-yl]amino]-N-(3-piperidylmethyl) benzamide] | 1.77 |
| O=C(NCC1CCNCC1)c1ccc(Nc2nc3c(N4CCC(O)(c5ccc(Cl)cc5)CC4)cccn3n2)cc1 [Example 1-184, 4-[[8-[4-(4-chlorophenyl)-4-hydroxy-1-piperidyl]-[1,2,4]triazolo[1,5-a]pyridin-2-yl]amino]-N-(4-piperidylmethyl)] | 1.15 |
| O=C(NCC1CCCCN1)c1ccc(Nc2nc3c(N4CCC(O)(c5ccc(Cl)cc5)CC4)cccn3n2)cc1 (centres unmarked) [Example 1-185] | 2.18 |
| O=C(NCCN1CCNCC1)c1ccc(Nc2nc3c(N4CCC(O)(c5ccc(Cl)cc5)CC4)cccn3n2)cc1 [Example 1-187] | 1.47 |
| O=C(NCC1CNCCO1)c1ccc(Nc2nc3c(N4CCC(O)(c5ccc(Cl)cc5)CC4)cccn3n2)cc1 (centres unmarked) [Example 1-188, 4-[[8-[4-(4-chlorophenyl)-4-hydroxy-1-piperidyl]-[1,2,4]triazolo[1,5-a]pyridin-2-yl]amino]-N-(morpholin-2-ylmethyl)benzamide] | 1.35 |
| NCC1CCN(C(=O)c2ccc(Nc3nc4c(N5CCC(O)(c6ccc(Cl)cc6)CC5)cccn4n3)cc2)CC1 [Example 1-193, [4-(aminomethyl)-1-piperidyl]-[4-[[8-[4-(4-chlorophenyl)-4-hydroxy-1-piperidyl]-[1,2,4]triazolo[1,5-a]pyridin-2-yl]amino]phenyl] methanone] | 1.95 |
| CN(CCN)C(=O)c1ccc(Nc2nc3c(N4CCC(O)(c5ccc(Cl)cc5)CC4)cccn3n2)cc1 [Example 1-194, N-(2-aminoethyl)-4-[[8-[4-(4-chlorophenyl)-4-hydroxy-1-piperidyl]-[1,2,4]triazolo[1,5-a]pyridin-2-yl]amino]-N-methyl-benzamide] | 3.52 |
| NCC1CCCN1C(=O)c1ccc(Nc2nc3c(N4CCC(O)(c5ccc(Cl)cc5)CC4)cccn3n2)cc1 (centres unmarked) [Example 1-195, [2-(aminomethyl)pyrrolidin-1-yl]-[4-[[8-[4-(4-chlorophenyl)-4-hydroxy-1-piperidyl]-[1,2,4]triazolo[1,5-a]pyridin-2-yl]amino]phenyl] methanone] | 3.74 |
| O=C(c1ccc(Nc2nc3c(N4CCC(O)(c5ccc(Cl)cc5)CC4)cccn3n2)cc1)N1CCNCC1CO (centres unmarked) [Example 1-196, [4-[[8-[4-(4-chlorophenyl)-4-hydroxy-1-piperidyl]-[1,2,4]triazolo[1,5-a]pyridin-2-yl]amino]phenyl]-[2-(hydroxymethyl)piperazin-1-yl]methanone] | 1.64 |
| O=C(c1ccc(Nc2nc3c(N4CCC(O)(c5ccc(Cl)cc5)CC4)cccn3n2)cc1)N1CC2CNCC2C1 (centres unmarked) [Example 1-197, 2,3,3a,4,6,6a-hexahydro-1H-pyrrolo[3,4-c]pyrrol-5-yl-[4-[[8-[4-(4-chlorophenyl)-4-hydroxy-1-piperidyl]-[1,2,4]triazolo[1,5-a]pyridin-2-yl]amino]phenyl] methanone] | 1.63 |
| O=C(N[C@H]1CCCNC1)c1ccc(Nc2nc3c(N4CCC(O)(c5ccc(Cl)cc5)CC4)cccn3n2)cc1 [Example 1-198, 4-[[8-[4-(4-chlorophenyl)-4-hydroxy-1-piperidyl]-[1,2,4]triazolo[1,5-a]pyridin-2-yl]amino]-N-[(3S)-3-piperidyl]benzamide] | 1.57 |
| O=C(c1ccc(Nc2nc3c(N4CCC(O)(c5ccc(Cl)cc5)CC4)cccn3n2)cc1)N1CC2(CCNCC2)C1 [Example 1-199, [4-[[8-[4-(4-chlorophenyl)-4-hydroxy-1-piperidyl]-[1,2,4]triazolo[1,5-a]pyridin-2-yl]amino]phenyl]-(2,7-diazaspiro[3.5]nonan-2-yl)methanone] | 0.66 |
| CC1CN(C(=O)c2ccc(Nc3nc4c(N5CCC(O)(c6ccc(Cl)cc6)CC5)cccn4n3)cc2)CCN1 (centres unmarked) [Example 1-200, [4-[[8-[4-(4-chlorophenyl)-4-hydroxy-1-piperidyl]-[1,2,4]triazolo[1,5-a]pyridin-2-yl]amino]phenyl]-(3-methylpiperazin-1-yl)methanone] | 3.6 |
| O=C(c1ccc(Nc2nc3c(N4CCC(O)(c5ccc(Cl)cc5)CC4)cccn3n2)cc1)N1CCC2(CC1)CNC2 [Example 1-201, [4-[[8-[4-(4-chlorophenyl)-4-hydroxy-1-piperidyl]-[1,2,4]triazolo[1,5-a]pyridin-2-yl]amino]phenyl]-(2,7-diazaspiro[3.5]nonan-7-yl)methanone] | 2.54 |
| CN(C(=O)c1ccc(Nc2nc3c(N4CCC(O)(c5ccc(Cl)cc5)CC4)cccn3n2)cc1)C1CCCNC1 (centres unmarked) [Example 1-202, 4-[[8-[4-(4-chlorophenyl)-4-hydroxy-1-piperidyl]-[1,2,4]triazolo[1,5-a]pyridin-2-yl]amino]-N-methyl-N-(3-piperidyl)benzamide] | 3.35 |
| O=C(c1ccc(Nc2nc3c(N4CCC(O)(c5ccc(Cl)cc5)CC4)cccn3n2)cc1)N1CC2(CNC2)C1 [Example 1-203, [4-[[8-[4-(4-chlorophenyl)-4-hydroxy-1-piperidyl]-[1,2,4]triazolo[1,5-a]pyridin-2-yl]amino]phenyl]-(2,6-diazaspiro[3.3]heptan-2-yl)methanone] | 1.48 |
